# From PubChem BioAssay AID1768 (National Center for Advancing Translational Sciences (NCATS), 2009)
# In all, about 270,000 compounds went through this assay and about 620 (0.23%) were called active. Inconclusive means that the source gave no clear call. Such entries were picked first, then a sample of the others. The call rests on the fitted dose curve; in most records, active means well fitted inhibition curve with a large enough effect in the polarisation, with a control signal flat (not every such curve was filed as active); inconclusive means small, poorly fitted or top-dose-only effect, or effect the other way, or a change in a side signal; inactive means no such curve, though single readings can be large or run the other way; the % refers to the polarisation. Potencies of inconclusive entries are doubtful fits and often do not repeat. A note “side channel” means that the fit belongs to a control or component signal, not to the main read-out.
# Biological target: Menin (Homo sapiens) (UniProt O00255)
# Assay: qHTS Assay for Inhibitors Targeting the Menin-MLL Interaction in MLL Related Leukemias: Competition With Texas Red Labeled MLL-derived Mutant Peptide; on FP activity change, negative = inhibition: % of control where 0% means no effect
# Details: fluorescence polarization; FP activity change, negative = inhibition: at 61.6 µM (top of the series)
# Potency means the concentration at half of the fitted maximal effect; tags describe the fitted curve by direction and shape or compound fluorescence and quenching.
# UniProt O00255, sequence (O00255 whole entry, looked up): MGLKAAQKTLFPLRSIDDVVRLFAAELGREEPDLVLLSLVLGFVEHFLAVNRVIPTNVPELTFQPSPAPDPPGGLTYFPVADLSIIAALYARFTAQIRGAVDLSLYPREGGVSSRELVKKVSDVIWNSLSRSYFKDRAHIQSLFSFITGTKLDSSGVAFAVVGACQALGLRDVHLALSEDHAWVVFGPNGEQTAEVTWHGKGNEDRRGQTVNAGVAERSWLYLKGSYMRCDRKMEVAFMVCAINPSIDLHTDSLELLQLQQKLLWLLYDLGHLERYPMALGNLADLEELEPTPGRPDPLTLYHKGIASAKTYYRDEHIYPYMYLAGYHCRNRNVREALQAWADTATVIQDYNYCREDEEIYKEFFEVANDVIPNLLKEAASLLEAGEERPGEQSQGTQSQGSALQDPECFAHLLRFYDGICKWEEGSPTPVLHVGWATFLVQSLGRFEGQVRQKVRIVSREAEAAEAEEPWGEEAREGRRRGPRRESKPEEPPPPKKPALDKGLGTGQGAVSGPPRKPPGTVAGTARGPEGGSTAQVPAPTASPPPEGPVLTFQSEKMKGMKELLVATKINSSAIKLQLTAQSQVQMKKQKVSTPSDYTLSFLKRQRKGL
SMILES,"FP activity change, negative = inhibition",Potency
COc1cccc(C2C(C(=O)Nc3nc4ccccc4s3)=C(C)NC3=C2C(=O)CC(C)(C)C3)c1OC (stereo unspecified),inactive: 17.8%,–
COc1ccccc1/C=C/c1ccc2cccc(O)c2n1,–,"inconclusive: 25.1 µM [quencher, side channel, partial curve]"
CS(=O)(=O)C1=NSC2=NC(=O)/C(=C\c3ccc(OC(=O)c4ccco4)cc3)C(=N)N21,–,"inconclusive: 17.8 µM [quencher, side channel, partial curve]"
Clc1cccc(Nc2nc(-c3cccnc3)cs2)c1,–,"inconclusive: 12.6 µM [quencher, side channel, partial curve]"
COc1ccc(-c2csc(Nc3ccc(S(=O)(=O)Nc4cc(C)on4)cc3)n2)cc1C,–,"inconclusive: 14.1 µM [quencher, side channel, partial curve]"
O=C(O)c1ccc(Cl)c(NC(=S)NC(=O)c2cccc(COc3ccccc3)c2)c1,–,"inconclusive: 6.31 µM [quencher, side channel, partial curve]"
CCc1ccc(NC(=O)c2cnn3ccccc23)cc1,–,"inconclusive: 31.6 µM [quencher, side channel, partial curve]"
CN1C(=O)/C(=C/c2ccc(O)c([N+](=O)[O-])c2)N(C)C1=S,–,"inconclusive: 28.2 µM [quencher, partial curve]"
COc1ccccc1C1CCN(C(=O)C2CCCCC2)CC1,–,"inconclusive: 0.631 µM [inhibitor, full curve, poor fit]"
CC(=O)Nc1nc2cccc([N+](=O)[O-])c2s1,–,"inconclusive: 39.8 µM [quencher, single point]"
S=C(NCc1cccs1)Nc1ccc(Br)cc1Cl,–,"inconclusive: 11.2 µM [quencher, side channel, partial curve]"
Cc1cccc(-c2nc(Nc3ccc(O)cc3)c3ccccc3n2)c1,–,"inconclusive: 3.16 µM [quencher, side channel, full curve]"
CCOC(=O)COc1ccc2c(c1)C(=O)CC1(CCCCC1)O2,inactive: -14.3%,–
CCn1c(SCC(=O)Nc2ccccc2N2CCCCC2)nc2c1c(=O)n(C)c(=O)n2C,–,"inconclusive: 0.708 µM [inhibitor, full curve, poor fit]"
CC1(C)CC(=O)c2c(nc(SCC(=O)Nc3nsc(-c4ccccc4)n3)c(C#N)c2-c2ccccc2)C1,–,"inconclusive: 10 µM [inhibitor, full curve]"
COc1ccccc1CNC(=O)COC(=O)c1cc(C)oc1C,–,"inconclusive: 39.8 µM [fluorescent, side channel, single point]"
